# Measurements from PubChem BioAssay AID488969 (Vanderbilt High Throughput Screening Facility, 2010).
# In all, about 110,000 compounds were measured (“z-score”: median about -0.1, highest 2% from about 2 on). The list shows a part of the results. Activity calls are given as the source filed them.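 Rule for the calls: active = z-score in the third read window above 3 or below -3; inactive = the rest.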
# Target: Metabotropic glutamate receptor 8 (Rattus norvegicus) (UniProt P70579)
# Assay: mGluR8 Gi/Go-coupled signaling modulation – cell-based, rat, thallium flux, HTS, primary screen (AID 488969)
# Conditions: HEK293 rat mGluR8, GIRK (G protein-gated inwardly rectifying potassium channel) thallium flux, FluoZin2; at 10 µM; stronger effect = higher value; submaximal glutamate (EC20) added with thallium
# Chain of UniProt P70579 (P70579 whole entry, looked up): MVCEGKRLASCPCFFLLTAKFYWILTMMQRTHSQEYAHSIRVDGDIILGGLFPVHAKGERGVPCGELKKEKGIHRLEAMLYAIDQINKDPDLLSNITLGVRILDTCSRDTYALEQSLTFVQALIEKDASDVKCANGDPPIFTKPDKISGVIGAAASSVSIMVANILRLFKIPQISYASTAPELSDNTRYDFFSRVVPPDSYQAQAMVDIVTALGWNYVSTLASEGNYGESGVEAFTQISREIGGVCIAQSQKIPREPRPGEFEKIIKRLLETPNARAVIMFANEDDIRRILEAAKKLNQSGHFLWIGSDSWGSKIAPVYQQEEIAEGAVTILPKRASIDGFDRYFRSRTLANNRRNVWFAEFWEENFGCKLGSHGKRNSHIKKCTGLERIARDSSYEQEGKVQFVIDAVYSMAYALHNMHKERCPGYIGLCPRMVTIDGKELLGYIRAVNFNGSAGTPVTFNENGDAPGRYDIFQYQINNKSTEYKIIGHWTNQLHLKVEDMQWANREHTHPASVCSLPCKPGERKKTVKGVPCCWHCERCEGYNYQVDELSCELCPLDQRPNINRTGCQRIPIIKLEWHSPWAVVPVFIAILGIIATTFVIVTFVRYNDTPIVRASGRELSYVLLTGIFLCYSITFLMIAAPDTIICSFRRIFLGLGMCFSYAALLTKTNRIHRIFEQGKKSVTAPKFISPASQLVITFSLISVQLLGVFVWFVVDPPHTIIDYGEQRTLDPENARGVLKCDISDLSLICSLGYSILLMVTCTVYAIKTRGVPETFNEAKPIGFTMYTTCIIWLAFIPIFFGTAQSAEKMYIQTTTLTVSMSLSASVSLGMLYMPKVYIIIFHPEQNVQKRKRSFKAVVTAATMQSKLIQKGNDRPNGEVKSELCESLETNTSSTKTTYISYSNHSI
row,SMILES,z-score
1,Cc1cccc(Nc2nc(-c3ccccn3)cs2)n1,0.446
2,CCOC(=O)C1CCN(S(=O)(=O)c2cccc(-c3cn4cccc(C)c4n3)c2)CC1,-0.994
3,COc1cccc(C2c3c(-c4cc(Cl)c(C)cc4O)n[nH]c3C(=O)N2Cc2cccnc2)c1 (stereo not given),-0.418
4,O=C(CSc1nncn1-c1ccccc1)Nc1cccc(S(=O)(=O)N2CCCCC2)c1,0.383
5,CN1C(=O)CC(N2CCC(C(N)=O)CC2)C1=O (stereo not given),0.151
6,Cc1ccc2c(c1)NC(=O)C(CC(=O)NCCN(C)C)O2 (stereo not given),-0.679
7,Cc1ccc(S(=O)(=O)/C(C#N)=C/c2ccccc2OCc2ccccc2)cc1,-0.136
8,COc1ccc2nc(SCc3cccc(C)c3)nc(C)c2c1,-0.294
9,O=C(/C=C/N1CCOCC1)c1cc2ccccc2o1,0.525
10,COc1ccc(/C=C2\SC(c3ccc(C)cc3)=NC2=O)cc1OC,-1.87
11,O=C(Nc1nnc(CC(=O)N2CCOCC2)s1)C1COc2ccccc2O1 (stereo not given),0.28
12,O=C(Nc1cccc(Cl)c1)N1CCN(Cc2ccccc2)CC1,-0.785
13,O=C1CCCN1CCCNc1ccc(S(=O)(=O)N2CCCCC2)cn1,0.742
14,COc1ccccc1Oc1ccc2c(c1)C(=O)N(c1ccc(C)cc1)C2=O,0.146
15,COc1ccc(Cc2nc(-c3cccc(C)c3)no2)cc1,0.0701
16,CC(/C=C/c1ccccc1)=N/NC(=O)C(O)c1ccccc1 (stereo not given),-0.14
17,CC[n+]1c(/C=C/N(C)c2ccccc2)oc2ccc(F)cc21,-0.81
18,C=CCSc1nnc(-c2ccccc2NC(C)=O)c(=O)[nH]1,-0.905
19,O=C(Nc1ncc2c(n1)-c1ccccc1OC2)c1ccccc1Cl,-0.113
20,CCOC(=O)c1ccc(NC(=O)COc2ccc(-n3cnnn3)cc2)cc1,-0.00131
21,CC(C)c1cc[n+](-c2nc([O-])sc2C=O)cc1,-0.0395
22,O=C1CC(=C2c3ccccc3-c3ccccc32)C(=O)N1CCN1CCN(c2ccccc2)CC1,0.0773

row,SMILES,z-score
1,C=C(C)Cn1c(SCC)nc2ccccc2c1=O,-0.756
2,O=C1Cc2ccccc2Sc2ccc(Cl)cc21,-0.097
3,Cc1ccc(C(=O)N2CCCC2)cc1Br,-0.559
4,Cc1cccc(Nc2nc3c(s2)CCCC3)c1,0.05
5,O=S(=O)(c1cccc(C(F)(F)F)c1)N1CCN(C(=S)NC2CC2)CC1,-0.421
6,Cc1cc(NC(=O)CN2CCCCCCC2)no1,-0.0461
7,Cc1csc(NC(=O)CSc2ncc(-c3ccccc3)[nH]2)n1,0.148
8,CCc1ccc(NC2=NC(C(=O)c3ccccc3)CC(=O)N2)cc1 (stereo not given),-0.0127
9,CC(NC(=O)COC(=O)c1cn(-c2ccccc2)nc1-c1cccs1)c1ccccc1 (stereo not given),-0.567
10,O=C(CSc1nnc(CN2CCOCC2)n1-c1ccc(Cl)cc1)Nc1cc(Cl)ccc1O,-0.794
11,CN1CCN(C(=O)N2CCNC2=O)CC1,-0.196
12,Clc1ccc(-c2nnc(N3CCCC3)nn2)cc1,0.101
13,CCCCN(CC)CCNC(=O)c1cc2c(=O)n(C)c3ccccc3c2n1C,2.85
14,N#CCSc1nnc2ccc3ccccc3n12,-0.272
15,CCOC(=O)CCSc1nc(-c2ccccc2)cc(C(F)(F)F)n1,-0.219
16,c1ccc2c(c1)C(=Nn1cnnc1)c1ccccc1-2,0.588
17,COc1ccc(C(C(=O)NC2CCCCC2)N2CCC3(CC2)OCCO3)cc1 (stereo not given),-0.185
18,CC(=O)N1CCC2(CC1)C(C#N)=C(N)Oc1n[nH]c(CSc3ccc(C)cc3)c12,-0.602
19,C=CCc1ccc(OCC(O)CN2CCCCC2C)c(OC)c1 (stereo not given),1.53
20,Cc1c(C(=O)NNS(=O)(=O)c2ccccc2)sc(=S)n1C,-0.0997
21,Cc1cc(Cl)ccc1OCCCC(=O)N1CCN(C(=O)c2ccco2)CC1,-1.24
22,COc1ccc(S(=O)(=O)N(C)C)cc1NC(=O)[C@H](Cc1ccccc1)N1C(=O)c2ccccc2C1=O,-0.291

row,SMILES,z-score
1,CC(=O)C1C(c2ccc(F)cc2)C2C(C)=NN=C2CC1(C)O (stereo not given),-0.0401
2,O=C(COC(=O)c1ccco1)Nc1ccccc1,0.158
3,CCC1CCCCN1CCCNC(=O)c1ccc(CS(=O)(=O)Cc2ccccc2F)o1 (stereo not given),0.299
4,Cc1ccc(C(=O)N/N=C2\CCSC2)cc1[N+](=O)[O-],-0.135
5,CCn1c(SCC(=O)Nc2nc(-c3ccccc3)cs2)nnc1-c1ccccc1O,-0.347
6,O=C(O)c1cc(-c2ccc(N3CCOCC3)cc2)nn1-c1ccc(F)cc1F,0.0374
7,CCOC(=O)N1CCN(C(=O)c2cc3c(ccc4ccccc43)oc2=O)CC1,-0.104
8,Cc1ccc(CS/C(Nc2ccccc2C)=C(\C#N)C(=O)NCc2ccco2)c(C)c1,-0.133
9,COc1cnn(-c2ccc(C)cc2)c(=O)c1SCc1ccccc1,-0.312
10,CCOC(=O)c1cc(CC)sc1NC(=O)CC1Sc2ccc(C(F)(F)F)cc2NC1=O (stereo not given),-0.0947
11,Cc1ccccc1Cn1nc(C)c(NC(=O)c2noc3c2CCc2ccccc2-3)c1C,-0.057
12,O=P(O)(O)c1ccccc1OCc1ccccc1,0.753
13,Nc1ccccc1-c1nnc(SCc2ccccc2F)[nH]c1=O,0.143
14,COc1ccc(OC)c(NC(=O)c2cn(C)c(=O)c3cc(OC)c(OC)cc23)c1,-0.533
15,O=C(Nc1ccccc1-c1ccccc1NC(=O)c1ccco1)c1ccco1,0.183
16,Cc1ncsc1CCOC(=O)c1cccnc1,0.213
17,O=C(CC1Sc2ncnn2C1=O)Nc1ccccc1 (stereo not given),0.138
18,CCc1ccccc1NC(=S)N1CCN(c2ccccn2)CC1,-0.0733
19,O=C1/C(=C\c2ccco2)SC(=S)N1Cc1ccccc1,-0.152
20,FC(F)(F)c1cc(-c2ccc3c(c2)OCO3)nc(NCc2ccco2)n1,-1.5
21,COc1cccc(C2CC(c3ccc(F)cc3)Nc3nc(N)nn32)c1 (stereo not given),0.0383
22,Cc1ccn(Cc2n[nH]c(=S)n2Cc2ccccc2)n1,0.443

row,SMILES,z-score
1,CC(Sc1nc(-c2ccccc2)cc(C(F)(F)F)n1)C(=O)Nc1ccc2c(c1)OCO2 (stereo not given),-0.185
2,CCOC(=O)c1nn(-c2ccccc2F)c(C)c1C(C)=O,-0.0893
3,CCn1c(SCC(=O)c2ccc(NS(=O)(=O)c3ccccc3)cc2)nnc1-c1cccs1,-0.729
4,C/C(=C\c1ccccc1)CN1CCN(c2cccc(Cl)c2)CC1,0.0576
5,O=P(c1ccccc1)(c1ccccc1)C(O)c1ccco1 (stereo not given),0.0299
6,CN(c1ccccc1C(=O)N1CCOCC1)S(C)(=O)=O,0.0693
7,CC(=O)C1=C(C)NC(SCC(N)=O)=C(C#N)C1c1cccs1 (stereo not given),0.57
8,CCCCn1nc2cc(C(=O)NCc3cc(C(F)(F)F)cc(C(F)(F)F)c3)ccc2c1OCC,0.0782
9,Cn1c(NC(=O)c2ccccc2)c(-c2ccccn2)c(=O)c2ccccc21,1.03
10,CC1(C)SC(=S)N(/N=C/c2ccccc2)C1N(O)C(=O)Nc1ccc([N+](=O)[O-])cc1 (stereo not given),0.00757
11,CCCCNC(=O)CCCCCn1c(=O)[nH]c2cc(OC)c(OC)cc2c1=O,-0.54
12,Clc1ccc(Cc2ccc(SCc3ccccc3)nn2)c(Cl)c1,active: 3.48
13,CCOC(=O)C1CCN(C(=O)CN(c2ccc3c(c2)OCCO3)S(C)(=O)=O)CC1,-0.102
14,CCCc1nnc(-c2cc(OC)c(OC)c(OC)c2)o1,0.363
15,CC(C)OC(=O)c1ccc(NC(=O)C2C3CC4OC(=O)C2C4C3)cc1 (stereo not given),0.0627
16,CC1Cc2nc(SCC(=O)NCc3ccccc3)n(Cc3ccccc3)c(=O)c2S1 (stereo not given),-0.257
17,O=P(CCNCc1ccco1)(c1ccccc1)c1ccccc1,0.267
18,CCOC(=O)c1ccc(NC(=O)C2=C(C)Nc3nc(CCCO)nn3C2c2cccc(C)c2)cc1 (stereo not given),0.0656
19,O=C(Nc1ccc(S(=O)(=O)N2CCCCC2)cc1)c1ccc(CN2CCc3ccccc3C2)cc1,-0.289
20,CCOC(=O)C/C(C)=N/NC(=O)CN(c1ccc(Br)cc1)S(=O)(=O)c1ccccc1,-0.127
21,O=C(C1CCCN(S(=O)(=O)c2ccccc2[N+](=O)[O-])C1)N1CCN(c2ccccc2)CC1 (stereo not given),-0.215
22,Cc1ccc(N2C=Nc3ccc(C)c4nc(C)cc2c34)cc1,-1.41

row,SMILES,z-score
1,COc1ccc(NCc2cc3cc(OC)ccc3[nH]c2=O)cc1,-0.00516
2,O=C(CS(=O)c1cccc(C(F)(F)F)c1)Nc1ccc(Cl)cc1Cl (stereo not given),-0.315
3,CCOC(=O)c1sc2nc(NC(=O)C(C)(C)C)sc2c1C,1.4
4,COc1ccc(O)c(C2=Nc3ccccc3N=C(c3cccs3)C2)c1,-0.134
5,CCOC(=O)c1ccc(N2C(=O)C(O)=C(C(C)=O)C2c2ccccc2)cc1 (stereo not given),active: -3.07
6,COc1ccc(CCNC(=O)CCCN2C(=O)c3ccccc3C2=O)cc1OC,0.0749
7,CCc1ccccc1NC(=O)CN(C)C(=O)CSc1nnc(Nc2cccc(C)c2)s1,0.0965
8,O=S(=O)(Nc1ccccn1)c1ccc(Oc2ccccc2)cc1,0.0168
9,CCC(Oc1nc2ccccc2nc1-c1ccccc1NC(C)=O)C(=O)c1ccccc1 (stereo not given),-0.416
10,O=[N+]([O-])c1ccc(Nc2nc(N/N=C/c3cccc(F)c3)nc(N3CCCC3)n2)cc1,-0.078
11,Cc1ccc(C)n1-c1ccc(N2CCOCC2)nc1,-0.064
12,c1csc(-c2nc3nc4ccccc4nc3n2Cc2ccc3c(c2)OCO3)c1,-0.615
13,Cc1c(=O)n(OCc2ccccc2F)c2ccccc2[n+]1[O-],0.527
14,Cc1cc(C(=O)NC(=S)Nc2ccccc2N2CCCC2)ccc1[N+](=O)[O-],0.156
15,CNc1nc(-c2ccccc2)[n+](-c2ccc(C)cc2)s1,0.365
16,N/C(=N\OC(=O)CC1CCCCC1)c1cccc([N+](=O)[O-])c1,-0.684
17,CCCCOC(=O)c1ccc(NC(=O)CSC2=Nc3ccccc3C3CC=NN23)cc1 (stereo not given),-0.317
18,CCOc1ccccc1NC(=O)C1CCN(S(=O)(=O)c2cccc3cccnc23)CC1,-0.484
19,CCOC(=O)N1CCC(N2C(=O)c3ccccc3C2Nc2ccc(Cl)cn2)CC1 (stereo not given),-0.274
20,COc1ccc(C(=O)NNC2CC(=O)N(Cc3ccccc3)C2=O)cc1OC (stereo not given),0.313
21,CCCCCc1ccc(-c2ccc(C(=O)O)cc2)nc1,-0.169
22,Cc1ccc(-c2cc3cccc[n+]3cc2-c2ccc(C)cc2)cc1,-0.0109
